Usually inhibition stands for the drop in the measured response relative to a control, in per cent.

In assay [1] the target is T1, Muscle, skeletal receptor tyrosine-protein kinase (Homo sapiens) (UniProt O15146).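 Note: reported value is the mean percent inhibition of MuSK kinase.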
T1 sequence (whole entry): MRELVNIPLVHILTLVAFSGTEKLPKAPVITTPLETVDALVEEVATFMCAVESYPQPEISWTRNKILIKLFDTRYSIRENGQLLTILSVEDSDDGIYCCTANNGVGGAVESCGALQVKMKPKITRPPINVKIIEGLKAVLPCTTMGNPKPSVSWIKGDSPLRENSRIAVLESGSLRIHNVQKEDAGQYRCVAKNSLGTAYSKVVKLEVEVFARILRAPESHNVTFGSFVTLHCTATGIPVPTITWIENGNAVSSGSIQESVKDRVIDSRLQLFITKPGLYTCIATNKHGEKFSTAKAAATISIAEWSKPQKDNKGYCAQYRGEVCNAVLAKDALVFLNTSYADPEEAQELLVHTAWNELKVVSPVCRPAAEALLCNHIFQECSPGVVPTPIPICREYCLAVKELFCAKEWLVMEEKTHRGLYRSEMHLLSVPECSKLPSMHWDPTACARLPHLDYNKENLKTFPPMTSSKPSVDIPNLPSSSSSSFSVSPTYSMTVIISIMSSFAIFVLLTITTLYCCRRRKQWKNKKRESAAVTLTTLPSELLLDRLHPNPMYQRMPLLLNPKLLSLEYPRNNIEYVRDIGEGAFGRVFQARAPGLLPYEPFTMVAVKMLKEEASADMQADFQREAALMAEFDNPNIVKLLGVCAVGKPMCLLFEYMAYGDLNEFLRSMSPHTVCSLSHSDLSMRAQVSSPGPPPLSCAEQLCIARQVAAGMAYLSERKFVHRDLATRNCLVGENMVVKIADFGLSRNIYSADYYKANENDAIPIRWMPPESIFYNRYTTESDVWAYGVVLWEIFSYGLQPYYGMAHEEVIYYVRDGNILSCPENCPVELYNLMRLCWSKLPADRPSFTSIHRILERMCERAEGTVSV
Particulars: at 1 µM.

For assay [2], the target named is Platelet-derived growth factor receptor alpha (Homo sapiens) (UniProt P16234). Particulars: at 0.1 µM.
UniProt P16234, sequence (P16234 whole entry): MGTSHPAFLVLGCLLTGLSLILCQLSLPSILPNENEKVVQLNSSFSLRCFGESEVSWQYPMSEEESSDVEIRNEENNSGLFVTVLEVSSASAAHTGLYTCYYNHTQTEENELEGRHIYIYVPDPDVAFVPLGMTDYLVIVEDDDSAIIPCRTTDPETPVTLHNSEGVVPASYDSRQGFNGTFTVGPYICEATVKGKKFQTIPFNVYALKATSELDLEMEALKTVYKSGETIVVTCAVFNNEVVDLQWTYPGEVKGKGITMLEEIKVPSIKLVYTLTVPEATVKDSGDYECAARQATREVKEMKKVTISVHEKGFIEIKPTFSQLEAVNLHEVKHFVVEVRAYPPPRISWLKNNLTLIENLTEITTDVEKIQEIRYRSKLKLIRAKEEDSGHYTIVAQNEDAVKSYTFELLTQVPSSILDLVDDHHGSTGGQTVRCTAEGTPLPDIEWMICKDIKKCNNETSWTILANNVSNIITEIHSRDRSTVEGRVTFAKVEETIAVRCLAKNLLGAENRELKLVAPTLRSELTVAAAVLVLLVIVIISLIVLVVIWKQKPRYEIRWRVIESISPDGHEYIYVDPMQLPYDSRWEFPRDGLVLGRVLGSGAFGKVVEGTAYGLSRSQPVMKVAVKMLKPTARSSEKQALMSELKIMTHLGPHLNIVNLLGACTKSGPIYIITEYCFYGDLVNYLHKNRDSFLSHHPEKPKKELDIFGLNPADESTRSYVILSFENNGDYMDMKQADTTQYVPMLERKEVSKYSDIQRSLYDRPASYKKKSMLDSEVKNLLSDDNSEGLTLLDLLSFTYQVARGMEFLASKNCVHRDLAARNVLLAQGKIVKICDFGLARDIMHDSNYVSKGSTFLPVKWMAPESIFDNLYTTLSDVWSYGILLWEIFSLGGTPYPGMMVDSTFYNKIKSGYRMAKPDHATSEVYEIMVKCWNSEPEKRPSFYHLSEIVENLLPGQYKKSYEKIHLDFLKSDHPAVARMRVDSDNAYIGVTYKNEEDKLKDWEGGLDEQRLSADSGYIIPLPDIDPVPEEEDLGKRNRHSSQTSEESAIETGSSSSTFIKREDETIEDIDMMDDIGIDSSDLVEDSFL
Assay [3] has the same target. Particulars: at 1 µM.
Assay [4] relates to Platelet-derived growth factor receptor alpha (Homo sapiens), P16234 [D842V]. Particulars: at 0.1 µM.
The test system is the same in assay [5]. Particulars: at 1 µM.
Assay [6] has as its system Platelet-derived growth factor receptor alpha (Homo sapiens), P16234 [T674I]. Particulars: at 0.1 µM.
Assay [7] shares this test system. Particulars: at 1 µM.
Assay [8] has as its system Platelet-derived growth factor receptor alpha (Homo sapiens), P16234 [V561D]. Particulars: at 0.1 µM.
Assay [9] has the same test system. Particulars: at 1 µM.
Assay [10] deals with Platelet-derived growth factor receptor beta (Homo sapiens) (UniProt P09619). Particulars: at 0.1 µM.
UniProt P09619, sequence (P09619 whole entry): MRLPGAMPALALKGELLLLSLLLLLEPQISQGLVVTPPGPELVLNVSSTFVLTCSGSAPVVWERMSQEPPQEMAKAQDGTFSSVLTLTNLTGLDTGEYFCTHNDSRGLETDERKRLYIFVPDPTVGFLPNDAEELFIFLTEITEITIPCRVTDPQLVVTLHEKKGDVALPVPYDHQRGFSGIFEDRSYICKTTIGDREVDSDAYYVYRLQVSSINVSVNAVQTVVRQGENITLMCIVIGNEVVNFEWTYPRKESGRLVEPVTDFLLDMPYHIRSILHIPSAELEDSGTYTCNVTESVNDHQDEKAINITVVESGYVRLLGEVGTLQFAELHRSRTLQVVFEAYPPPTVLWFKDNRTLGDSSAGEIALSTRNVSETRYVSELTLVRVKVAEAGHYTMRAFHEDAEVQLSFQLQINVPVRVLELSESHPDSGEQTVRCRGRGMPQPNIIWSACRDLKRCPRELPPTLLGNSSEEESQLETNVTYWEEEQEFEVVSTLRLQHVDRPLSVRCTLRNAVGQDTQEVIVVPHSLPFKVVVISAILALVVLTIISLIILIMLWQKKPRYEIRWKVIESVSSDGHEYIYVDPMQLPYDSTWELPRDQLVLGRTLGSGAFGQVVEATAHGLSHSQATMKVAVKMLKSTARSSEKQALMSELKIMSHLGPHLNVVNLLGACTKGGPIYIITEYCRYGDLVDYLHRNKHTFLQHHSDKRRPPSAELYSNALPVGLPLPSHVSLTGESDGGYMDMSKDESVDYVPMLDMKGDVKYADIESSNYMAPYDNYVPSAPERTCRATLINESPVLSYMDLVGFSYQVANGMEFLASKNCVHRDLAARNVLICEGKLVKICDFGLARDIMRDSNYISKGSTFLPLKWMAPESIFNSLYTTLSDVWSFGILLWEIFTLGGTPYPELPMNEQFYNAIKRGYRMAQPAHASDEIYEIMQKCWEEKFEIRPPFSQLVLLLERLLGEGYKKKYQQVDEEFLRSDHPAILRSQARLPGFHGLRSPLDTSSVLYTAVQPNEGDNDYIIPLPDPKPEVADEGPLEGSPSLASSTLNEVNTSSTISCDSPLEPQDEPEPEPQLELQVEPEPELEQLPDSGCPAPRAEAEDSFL
Assay [11] has the same target. Particulars: at 1 µM.
Assay [12] has as its target Tyrosine-protein kinase FRK (Homo sapiens) (UniProt P42685). Particulars: at 0.1 µM.
UniProt P42685, sequence (P42685 whole entry): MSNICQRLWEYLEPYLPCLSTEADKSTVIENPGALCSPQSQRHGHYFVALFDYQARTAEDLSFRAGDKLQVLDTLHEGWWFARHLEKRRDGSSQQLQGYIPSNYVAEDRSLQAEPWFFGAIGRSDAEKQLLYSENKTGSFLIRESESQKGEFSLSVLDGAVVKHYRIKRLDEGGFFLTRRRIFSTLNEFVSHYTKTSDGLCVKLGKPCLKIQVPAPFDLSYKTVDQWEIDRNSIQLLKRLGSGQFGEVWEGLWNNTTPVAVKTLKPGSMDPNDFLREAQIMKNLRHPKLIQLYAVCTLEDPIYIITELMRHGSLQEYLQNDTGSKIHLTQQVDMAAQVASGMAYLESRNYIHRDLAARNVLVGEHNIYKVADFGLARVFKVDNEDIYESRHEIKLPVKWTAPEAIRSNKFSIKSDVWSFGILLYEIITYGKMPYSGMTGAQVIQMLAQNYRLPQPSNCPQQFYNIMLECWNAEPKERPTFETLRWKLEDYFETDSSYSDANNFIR
Assay [13] shares this target. Particulars: at 1 µM.
In assay [14] the target is Protein-tyrosine kinase 2-beta (Homo sapiens) (UniProt Q14289). Particulars: at 0.1 µM.
UniProt Q14289, sequence (Q14289 whole entry, looked up): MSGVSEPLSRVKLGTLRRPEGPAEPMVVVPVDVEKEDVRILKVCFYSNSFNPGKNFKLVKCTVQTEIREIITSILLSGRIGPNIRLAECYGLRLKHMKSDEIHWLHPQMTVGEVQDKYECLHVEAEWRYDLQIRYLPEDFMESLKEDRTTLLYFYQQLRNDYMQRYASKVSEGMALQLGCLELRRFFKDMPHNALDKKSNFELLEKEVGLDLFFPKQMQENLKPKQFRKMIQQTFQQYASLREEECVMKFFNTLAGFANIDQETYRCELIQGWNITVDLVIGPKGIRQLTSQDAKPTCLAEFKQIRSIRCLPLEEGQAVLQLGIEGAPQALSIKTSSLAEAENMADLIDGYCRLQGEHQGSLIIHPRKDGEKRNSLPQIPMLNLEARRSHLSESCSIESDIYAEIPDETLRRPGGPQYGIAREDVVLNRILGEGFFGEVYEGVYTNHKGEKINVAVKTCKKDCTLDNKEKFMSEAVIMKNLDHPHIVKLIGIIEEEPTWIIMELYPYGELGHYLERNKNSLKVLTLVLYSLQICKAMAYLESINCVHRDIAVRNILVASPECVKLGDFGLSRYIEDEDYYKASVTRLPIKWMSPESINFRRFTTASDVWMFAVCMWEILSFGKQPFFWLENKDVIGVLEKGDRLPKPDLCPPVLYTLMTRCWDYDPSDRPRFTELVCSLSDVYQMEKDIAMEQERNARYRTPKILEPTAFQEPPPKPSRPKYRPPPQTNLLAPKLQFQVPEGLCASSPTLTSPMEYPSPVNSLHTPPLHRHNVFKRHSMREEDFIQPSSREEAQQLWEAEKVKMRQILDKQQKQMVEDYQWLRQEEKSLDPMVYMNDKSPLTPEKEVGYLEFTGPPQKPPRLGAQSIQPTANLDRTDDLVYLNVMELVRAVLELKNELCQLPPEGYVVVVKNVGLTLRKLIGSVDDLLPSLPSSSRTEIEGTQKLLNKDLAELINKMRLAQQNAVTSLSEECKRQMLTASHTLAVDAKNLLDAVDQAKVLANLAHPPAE
Assay [15] shares this target. Particulars: at 1 µM.
Assay [16] addresses Proto-oncogene tyrosine-protein kinase receptor Ret (Homo sapiens) (UniProt P07949). Particulars: at 0.1 µM.
UniProt P07949, sequence (P07949 whole entry): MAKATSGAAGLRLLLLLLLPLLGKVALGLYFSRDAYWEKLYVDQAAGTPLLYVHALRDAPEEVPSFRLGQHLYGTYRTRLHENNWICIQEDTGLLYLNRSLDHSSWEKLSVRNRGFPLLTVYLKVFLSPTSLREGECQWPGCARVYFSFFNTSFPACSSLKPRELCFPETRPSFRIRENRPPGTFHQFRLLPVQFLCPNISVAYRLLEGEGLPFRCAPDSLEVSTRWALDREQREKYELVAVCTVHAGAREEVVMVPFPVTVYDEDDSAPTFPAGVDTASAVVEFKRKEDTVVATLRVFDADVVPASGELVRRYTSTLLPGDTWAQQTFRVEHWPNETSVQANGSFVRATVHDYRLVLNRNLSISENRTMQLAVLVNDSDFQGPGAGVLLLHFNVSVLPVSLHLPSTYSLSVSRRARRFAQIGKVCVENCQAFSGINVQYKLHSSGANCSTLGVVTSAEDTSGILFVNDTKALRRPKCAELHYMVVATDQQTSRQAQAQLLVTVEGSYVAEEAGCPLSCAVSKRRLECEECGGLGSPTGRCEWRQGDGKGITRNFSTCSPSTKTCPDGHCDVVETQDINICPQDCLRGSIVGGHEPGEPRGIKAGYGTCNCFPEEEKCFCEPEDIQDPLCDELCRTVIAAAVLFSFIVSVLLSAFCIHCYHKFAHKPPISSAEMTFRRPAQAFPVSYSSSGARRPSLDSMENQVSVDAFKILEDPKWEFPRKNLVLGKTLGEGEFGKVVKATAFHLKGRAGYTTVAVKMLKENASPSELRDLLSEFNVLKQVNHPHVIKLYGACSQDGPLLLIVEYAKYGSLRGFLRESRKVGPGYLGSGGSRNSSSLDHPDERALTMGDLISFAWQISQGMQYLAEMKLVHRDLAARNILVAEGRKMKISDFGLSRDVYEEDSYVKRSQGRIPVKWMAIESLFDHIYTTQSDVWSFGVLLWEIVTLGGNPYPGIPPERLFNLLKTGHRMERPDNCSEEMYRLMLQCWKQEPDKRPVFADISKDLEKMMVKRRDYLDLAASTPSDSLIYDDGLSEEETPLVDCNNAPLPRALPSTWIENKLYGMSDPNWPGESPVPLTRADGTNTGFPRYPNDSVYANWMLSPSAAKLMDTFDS
For assay [17] the target is unchanged. Particulars: at 1 µM.
The test system of assay [18] is Proto-oncogene tyrosine-protein kinase receptor Ret (Homo sapiens), P07949 [V804L]. Particulars: at 0.1 µM.
The test system is the same in assay [19]. Particulars: at 1 µM.
The test system of assay [20] is Proto-oncogene tyrosine-protein kinase receptor Ret (Homo sapiens), P07949 [Y791F]. Particulars: at 0.1 µM.

Molecules are shown by their SMILES. For some of these results: Shown are results outside the selection of strong results, which stands elsewhere. The list shows a part of the results, in another mix than the full data.

As to `O=C1NC(=O)C(c2cccc([N+](=O)[O-])c2)=C1Nc1cc(Cl)c(O)c(Cl)c1`, the inhibition is -3.35% in assay [1]; 3.16% in assay [2]; 4.4% in assay [3]; 2.41% in assay [4]; 3.86% in assay [5]; 3.38% in [6]. Also, the inhibition is 2.92% in assay [7]; 2.5% in assay [8]; 1.7% in assay [9]; -0.34% in [10]; 4.95% in [11]; 0.72% in assay [12]. Also, the inhibition in assay [13] worked out at 0.95%; in assay [14] it was 0.55%; in assay [15], 5.27%; in assay [16], 3.54%; in assay [17] it was 3.36%; in [18] it was 1.26%. Further, the inhibition worked out at 2.64% in assay [19] and 2.45% in [20].

As to `Fc1ccc(-c2ncn(C3CCNCC3)c2-c2ccnc(Oc3cccc(F)c3)n2)cc1`, the inhibition in assay [1] was determined as 7.23%; in assay [2], 8.78%; in assay [3], 12.4%; in [4], 4.11%; in assay [5], 3.6%; in assay [6], 2.81%. The inhibition came out at 6.48% in [7]; 4.4% in assay [8]; 6.11% in assay [9]; 8.14% in assay [10]; 11.9% in assay [11]; 4.78% in [12]. Further, the inhibition in assay [13] was 3.94%; in [14] it was 6.46%; in assay [15] it was 14.4%; in assay [16], 3.18%; in [17], 7.72%; in assay [18] it was 2.93%. Also, the inhibition came out at 7.74% in assay [19] and 5.79% in [20].

For `NC(=O)CCc1ccccc1Oc1nccc(-c2c(-c3ccc(F)cc3)ncn2C2CCNCC2)n1`, the inhibition was -2.49% in assay [1]; -0.3% in assay [2]; 2.35% in assay [3]; 1.4% in [4]; 0.05% in [6]; 2.24% in assay [7]. For the same compound, the inhibition is 2.85% in assay [8]; 5.29% in assay [9]; -0.36% in assay [10]; 3.03% in [11]; -0.1% in [12]; 1.4% in [13]. Also, the inhibition in assay [14] was -4.8%; in assay [15], -1.77%; in [16] it was 2.33%; in assay [17], 3.04%; in assay [18], 1.66%; in assay [19], -0.56%. In [20], the inhibition is -0.01%.

Turning to `O=C1NC(=O)C(c2ccccc2Cl)=C1Nc1cc(Cl)c(O)c(Cl)c1`, the inhibition in assay [1] is 4.9%; in [2], 8.08%; in assay [3], 14.6%; in assay [4], -0.39%; in assay [5], 1.1%; in [6], 6.1%. The inhibition in assay [7] is 6.84%; in assay [8], 0.98%; in assay [9], -0.18%; in assay [10] it was 7.6%; in assay [11], 14.1%; in assay [12] it was 1.41%. In addition, the inhibition in [13] was found to be 0.33%; in assay [14] it was 10.1%; in [15], 13%; in assay [16], 3.05%; in [17] it was 5.72%; in assay [18], 0.66%. In addition, the inhibition in assay [19] came to 17.1%; in assay [20], 0.8%.

Take `Cc1cccc(Oc2nccc(-c3c(-c4ccc(F)cc4)ncn3C3CCNCC3)n2)c1C`: the inhibition amounted to 1.7% in assay [1]; 7.03% in assay [2]; 10.4% in assay [3]; 2.45% in assay [4]; 3.93% in [5]; 3.47% in assay [6]. For the same compound, the inhibition in [7] was found to be 5.02%; in assay [8] it was 3.63%; in [9] it was 3.86%; in assay [10] it was 4.28%; in assay [11] it was 7.07%; in assay [12], 2.34%. Also, the inhibition in [13] came to 3.3%; in assay [14], 5.26%; in assay [15], 7.9%; in assay [16], 3.65%; in assay [17], 7.22%; in assay [18], 3.71%. For the same compound, the inhibition in assay [19] came to 8.02%; in assay [20], 5.73%.

As to `COc1ccccc1C1=C(Nc2ccccc2)C(=O)NC1=O`, the inhibition came out at 6.34% in assay [1]; 6.85% in assay [2]; 13.8% in assay [3]; 1.38% in assay [4]; 2.72% in assay [5]; 5.71% in assay [6]. Further, the inhibition in assay [7] is 6.97%; in [8] it was -1.2%; in assay [9] it was 1.31%; in assay [10] it was 3.25%; in [11], 9.91%; in [12], 1.2%. Besides, the inhibition in [13] turned out to be 1.76%; in assay [14] it was 1.5%; in assay [15], 13.1%; in assay [16], 6.25%; in assay [17] it was 12%; in assay [18], 4.29%. Moreover, the inhibition in assay [19] was 13.4%; in [20] it was 8.48%.

Consider `COc1ccccc1Oc1nccc(-c2c(-c3ccc(F)cc3)ncn2C2CCNCC2)n1`, for which the inhibition in [1] was found to be 3.71%; in assay [2], 9.26%; in assay [3], 13.9%; in assay [4], 3.39%; in [5], 4.03%; in assay [6], 3.65%. Further, the inhibition in assay [7] is 9.72%; in assay [8] it was 4.97%; in assay [9], 5.27%; in [10], 8.12%; in assay [11] it was 8%; in assay [12] it was 3.08%. Further, the inhibition in assay [13] turned out to be 3.1%; in [14], 3.75%; in assay [15], 5.59%; in assay [16] it was 3.97%; in assay [17], 8.75%; in [18], 3.51%. The inhibition in assay [19] was 11.1%; in assay [20], 6.45%.

(Values after ChEMBL document CHEMBL1961873, “Compounds: GSK PKIS; Assays: Nanosyn kinase panel” (2012).)
